According to the antibiotic and cytotoxicity screens of Wong et al. (2023):
Some of the results follow.

What follows are molecules tested on HSkMC (human skeletal muscle cells) (assay: cytotoxicity call (relative viability < 0.9)). Settings: 10 µM.

Row | SMILES | cytotoxicity call
1 | COc1cc2c(cc1OC)C1CC(=O)C(CC(C)C)CN1CC2 (configuration not stated) | inactive
2 | N=C1NC(=O)N2CC12 (configuration not stated) | inactive
3 | COc1cc([C@@H](O)CN)ccc1O | inactive
4 | O=[N+]([O-])c1cc(O)c(O)c([N+](=O)[O-])c1 | inactive
5 | CO[C@H]1[C@@H](O)[C@@H](C)O[C@H](O[C@H]2CC[C@@]3(C)[C@H]4CC[C@@]5(C)[C@@H](C6=CC(=O)OC6)CC[C@]5(O)[C@@H]4CC[C@]3(O)C2)[C@@H]1O | inactive
6 | S=C1NCCN1 | inactive
7 | CCC(COC(=O)c1cc(OC)c(OC)c(OC)c1)(c1ccccc1)N(C)C.O=C(O)C=CC(=O)O (configuration not stated) | inactive
8 | C[C@@H]1CN([C@H](C)CO)C(=O)CCCn2cc(nn2)CO[C@@H]1CN(C)C(=O)Oc1cccc2ccccc12 | inactive
9 | CC(C)[C@@]1(NC(=O)[C@H]2C[C@@H]3c4cccc5[nH]cc(c45)C[C@H]3N(C)C2)O[C@@]2(O)[C@H]3CCCN3C(=O)[C@@H](Cc3ccccc3)N2C1=O | inactive
10 | COc1ccn(C)c(=O)c1C#N | inactive
11 | CC(C)[C@H](N)C(=O)N1CCC[C@H]1B(O)O | inactive
12 | COc1cc(C2c3cc4c(cc3C(O)C3COC(=O)C23)OCO4)cc(OC)c1OC (configuration not stated) | inactive
13 | COC(=O)C1=CCCN(C)C1 | inactive
14 | Cn1cnc(CCN)c1 | inactive
15 | N[C@H]1Cc2ccccc2[C@@H]1O | inactive
16 | CC1(C)C(O)CC(=O)C2(C)C1CC(=O)C1(C)C2CCC2(C)C(c3ccoc3)OC(=O)C3OC321 (configuration not stated) | inactive
17 | COCCCNC(=O)[C@@]1(Cc2ccccc2N=[N+]=[N-])N=C(c2ccc(OCCCO)cc2)O[C@H]1c1ccccc1N=[N+]=[N-] | inactive
